Reference: the supplement of paper PMC10369915
The list shows a part of the results. Rule as the data show it: active = 3.2 or more and inactive = the rest. The signal is at background level for most entries.

target: SHP2 C-SH2 domain E139D; assay: enrichment score (SH2-bound / input frequency) (ratio); bacterial display of known human phosphotyrosine sites (pTyr-Var adds point mutants) read by sequencing; higher = stronger binding; tyrosines were phosphorylated by kinases first; conditions: peptide library: pTyr-Var
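Also: displayed peptides selected on beads carrying the immobilized SH2 domain, with library peptides lacking any tyrosine serving as negative controls.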

Enrichment score, active:
AQMAMYFWEMG [TRPM4_Y577] 3.54

Enrichment score, inactive:
ISSLRYELLEE [TRPC6_Y896] 1.03, FVTSMYNEILM [TRPV1_Y310] 1.85, PRNLIYFGEHP [TRPV6_Y201_C197R] 0.944, QPDFLYDHIQP [TRRAP_Y862] 1.91, ISHVAYRVLGK [TRRAP_Y892] 0.7, ISHVAYCVLGK [TRRAP_Y892_R893C] 1.4, ISHVAYLVLGK [TRRAP_Y892_R893L] 3.04, DTQNSYRCATS [TSC1_Y304_G305R] 0.696, FDSPFYRDSLP [TSC1_Y508] 0.608, FDSPFYQDSLP [TSC1_Y508_R509Q] 0.781, FVSIVYNDSGE [TSC2_Y1650] 1.4, EPTPGYEVGQR [TSC2_Y1788] 0.448, QPTPGYEVGQR [TSC2_Y1788_E1783Q] 0.537, EPTPGYEVSQR [TSC2_Y1788_G1791S] 0.543, RQAQAYRGQRV [TSHR_Y706] 0.232, RQGQAYRGQRV [TSHR_Y706_A703G] 0.252, ARMTNCGLPRY [TSPAN12_Y138_Y138C] 0.928

target: SHP2 C-SH2 domain wild-type; assay: as above; conditions: peptide library: pTyr-Var

Enrichment score, inactive:
ISSLRYELLEE [TRPC6_Y896] 0.879, AQMAMYFWEMG [TRPM4_Y577] 2.98, FVTSMYNEILM [TRPV1_Y310] 1.79, PRNLIYFGEHP [TRPV6_Y201_C197R] 0.745, QPDFLYDHIQP [TRRAP_Y862] 2.6, ISHVAYRVLGK [TRRAP_Y892] 0.56, ISHVAYCVLGK [TRRAP_Y892_R893C] 2.04, DTQNSYRCATS [TSC1_Y304_G305R] 0.608, FDSPFYRDSLP [TSC1_Y508] 0.546, FDSPFYQDSLP [TSC1_Y508_R509Q] 0.777, FVSIVYNDSGE [TSC2_Y1650] 1.32, EPTPGYEVGQR [TSC2_Y1788] 0.435, QPTPGYEVGQR [TSC2_Y1788_E1783Q] 0.469, EPTPGYEVSQR [TSC2_Y1788_G1791S] 0.615, RQAQAYRGQRV [TSHR_Y706] 0.252, RQGQAYRGQRV [TSHR_Y706_A703G] 0.207, ARMTNCGLPRY [TSPAN12_Y138_Y138C] 0.79

Enrichment score, active:
ISHVAYLVLGK [TRRAP_Y892_R893L] 3.33

target: SHP2 N-SH2 domain L43F; assay: as above; conditions: peptide library: pTyr-Var

Enrichment score, inactive:
ISSLRYELLEE [TRPC6_Y896] 0.924, AQMAMYFWEMG [TRPM4_Y577] 3.17, FVTSMYNEILM [TRPV1_Y310] 1.81, PRNLIYFGEHP [TRPV6_Y201_C197R] 0.723, QPDFLYDHIQP [TRRAP_Y862] 1.39, ISHVAYRVLGK [TRRAP_Y892] 0.671, ISHVAYCVLGK [TRRAP_Y892_R893C] 1.48, ISHVAYLVLGK [TRRAP_Y892_R893L] 3.14, DTQNSYRCATS [TSC1_Y304_G305R] 0.524, FDSPFYRDSLP [TSC1_Y508] 0.64, FDSPFYQDSLP [TSC1_Y508_R509Q] 0.965, FVSIVYNDSGE [TSC2_Y1650] 1.41, EPTPGYEVGQR [TSC2_Y1788] 0.527, QPTPGYEVGQR [TSC2_Y1788_E1783Q] 0.608, EPTPGYEVSQR [TSC2_Y1788_G1791S] 0.529, RQAQAYRGQRV [TSHR_Y706] 0.245, RQGQAYRGQRV [TSHR_Y706_A703G] 0.256, ARMTNCGLPRY [TSPAN12_Y138_Y138C] 0.93

target: SHP2 N-SH2 domain T42A; assay: as above; conditions: peptide library: pTyr-Var

Enrichment score, inactive:
ISSLRYELLEE [TRPC6_Y896] 0.906, AQMAMYFWEMG [TRPM4_Y577] 2.43, FVTSMYNEILM [TRPV1_Y310] 3.17, PRNLIYFGEHP [TRPV6_Y201_C197R] 0.925, QPDFLYDHIQP [TRRAP_Y862] 1.8, ISHVAYRVLGK [TRRAP_Y892] 0.57, ISHVAYCVLGK [TRRAP_Y892_R893C] 2.89, DTQNSYRCATS [TSC1_Y304_G305R] 0.503, FDSPFYRDSLP [TSC1_Y508] 0.665, FDSPFYQDSLP [TSC1_Y508_R509Q] 0.76, FVSIVYNDSGE [TSC2_Y1650] 1.29, EPTPGYEVGQR [TSC2_Y1788] 0.386, QPTPGYEVGQR [TSC2_Y1788_E1783Q] 0.388, EPTPGYEVSQR [TSC2_Y1788_G1791S] 0.408, RQAQAYRGQRV [TSHR_Y706] 0.197, RQGQAYRGQRV [TSHR_Y706_A703G] 0.289, ARMTNCGLPRY [TSPAN12_Y138_Y138C] 0.698

Enrichment score, active:
ISHVAYLVLGK [TRRAP_Y892_R893L] 5.78

target: SHP2 N-SH2 domain T52S; assay: as above; conditions: peptide library: pTyr-Var

Enrichment score, inactive:
ISSLRYELLEE [TRPC6_Y896] 0.903, AQMAMYFWEMG [TRPM4_Y577] 2.69, FVTSMYNEILM [TRPV1_Y310] 1.57, PRNLIYFGEHP [TRPV6_Y201_C197R] 0.839, QPDFLYDHIQP [TRRAP_Y862] 2.3, ISHVAYRVLGK [TRRAP_Y892] 0.675, ISHVAYCVLGK [TRRAP_Y892_R893C] 1.48, ISHVAYLVLGK [TRRAP_Y892_R893L] 2.87, DTQNSYRCATS [TSC1_Y304_G305R] 0.639, FDSPFYRDSLP [TSC1_Y508] 0.652, FDSPFYQDSLP [TSC1_Y508_R509Q] 0.784, FVSIVYNDSGE [TSC2_Y1650] 1.94, EPTPGYEVGQR [TSC2_Y1788] 0.466, QPTPGYEVGQR [TSC2_Y1788_E1783Q] 0.7, EPTPGYEVSQR [TSC2_Y1788_G1791S] 0.445, RQAQAYRGQRV [TSHR_Y706] 0.171, RQGQAYRGQRV [TSHR_Y706_A703G] 0.37, ARMTNCGLPRY [TSPAN12_Y138_Y138C] 0.879

target: SHP2 N-SH2 domain wild-type; assay: as above; conditions: peptide library: pTyr-Var

Enrichment score, inactive:
ISSLRYELLEE [TRPC6_Y896] 1.25, AQMAMYFWEMG [TRPM4_Y577] 3.12, FVTSMYNEILM [TRPV1_Y310] 1.67, PRNLIYFGEHP [TRPV6_Y201_C197R] 0.608, QPDFLYDHIQP [TRRAP_Y862] 1.59, ISHVAYRVLGK [TRRAP_Y892] 0.71, ISHVAYCVLGK [TRRAP_Y892_R893C] 1.81, ISHVAYLVLGK [TRRAP_Y892_R893L] 2.43, DTQNSYRCATS [TSC1_Y304_G305R] 0.873, FDSPFYRDSLP [TSC1_Y508] 0.732, FDSPFYQDSLP [TSC1_Y508_R509Q] 0.853, FVSIVYNDSGE [TSC2_Y1650] 1.56, EPTPGYEVGQR [TSC2_Y1788] 0.498, QPTPGYEVGQR [TSC2_Y1788_E1783Q] 0.689, EPTPGYEVSQR [TSC2_Y1788_G1791S] 0.689, RQAQAYRGQRV [TSHR_Y706] 0.373, RQGQAYRGQRV [TSHR_Y706_A703G] 0.491, ARMTNCGLPRY [TSPAN12_Y138_Y138C] 0.888
